According to the BET-seq Pho4 binding data (Le et al. 2018):
The other results are listed elsewhere or left out. These are noisy estimates, calculated here from bound and input reads.

Biological target: T1, Pho4 (S. cerevisiae) (UniProt P07270)
T1 sequence: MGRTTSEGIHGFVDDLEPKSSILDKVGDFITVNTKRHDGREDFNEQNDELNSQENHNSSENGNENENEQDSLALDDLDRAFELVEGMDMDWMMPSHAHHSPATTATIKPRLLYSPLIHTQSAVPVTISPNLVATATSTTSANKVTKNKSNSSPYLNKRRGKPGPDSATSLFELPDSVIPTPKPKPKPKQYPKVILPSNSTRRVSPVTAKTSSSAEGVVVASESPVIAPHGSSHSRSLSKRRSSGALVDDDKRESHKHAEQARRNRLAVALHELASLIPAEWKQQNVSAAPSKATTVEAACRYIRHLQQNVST
Assay: relative binding free energy (BET-seq); higher = weaker binding
Conditions: reference: library average

| Sequence | relative binding free energy [kcal/mol] |
| --- | --- |
| GTTGGCACGTGAGGGC | 0.23 |
| ATTTACACGTGGTGGG | 0.08 |
| GGGTGCACGTGTAAAA | 0.21 |
| TTGAGCACGTGGGAAG | -0.08 |
| TAGAACACGTGGTAGT | 0.09 |
| GGTGGCACGTGCGGGG | -0.05 |
| TTTGCCACGTGTTTTA | -0.11 |
| TGCGGCACGTGGCAGG | -0.17 |
| GTAGACACGTGTGAGT | 0.15 |
| CGGCTCACGTGGGTTC | 0.27 |
| CTGCGCACGTGGCGGT | -0.23 |
| AAAGTCACGTGTATAG | 0.08 |
| CGATTCACGTGGCGTT | 0.14 |
| ATTTGCACGTGAATAG | 0.31 |
| GGTAACACGTGGGCGT | -0.08 |
| GTCCGCACGTGAGGTG | 0.15 |
| ATCTTCACGTGTCTGT | 0.39 |
| GGATACACGTGTATTA | 0.06 |
| TTGTGCACGTGGGTTT | -0.11 |
| ATTGTCACGTGACGGT | 0.19 |
| AGAATCACGTGGTTTA | 0.37 |
| TGTAACACGTGTTGGT | 0.07 |
| TGGCACACGTGAGGGG | 0.27 |
| TGAGGCACGTGGAGCC | 0 |
| AATGGCACGTGGAAAG | -0.07 |

| Sequence | relative binding free energy [kcal/mol] |
| --- | --- |
| GAGTTCACGTGGCAGG | 0.27 |
| GGGCACACGTGGGGGC | -0.04 |
| GGTGTCACGTGATGGA | 0.35 |
| TGGGTCACGTGGGAAA | 0.1 |
| GATGGCACGTGGTTAG | -0.04 |
| GAGGGCACGTGTAACG | 0.09 |
| GGGCTCACGTGGAGGC | 0.17 |
| CGCGGCACGTGTTGTT | -0.07 |
| TGTTGCACGTGCTTAT | -0.09 |
| TGGCGCACGTGTGTGC | 0.02 |
| ATAATCACGTGAGTTA | 0.22 |
| GATGGCACGTGTCGCT | 0.02 |
| ATTGACACGTGTGTAA | 0 |
| CTTCACACGTGTGGGT | 0.22 |
| GGCTTCACGTGCAGTT | 0.26 |
| TGGGACACGTGAGGGC | 0.3 |
| TATTGCACGTGGGCGG | -0.14 |
| TATGTCACGTGACTGA | 0.31 |
| GTGTGCACGTGGTCAA | -0.06 |
| AGCTGCACGTGGCGTT | -0.11 |
| CGGTACACGTGGCGGT | 0.01 |
| TGGTTCACGTGGTACG | 0.24 |
| TGATTCACGTGTTAGG | 0.24 |
| TCAGTCACGTGTGATT | 0.23 |
| GGGTGCACGTGATACT | 0.17 |

| Sequence | relative binding free energy [kcal/mol] |
| --- | --- |
| CGTAGCACGTGGGTGT | -0.28 |
| ATGTGCACGTGTAAAG | -0.11 |
| CTGTGCACGTGGCTGT | -0.04 |
| ACAGGCACGTGGTGCT | -0.08 |
| GAAATCACGTGATTGG | 0.45 |
| TGGGGCACGTGATTCG | 0.1 |
| GGTTGCACGTGAATCT | 0.23 |
| GTGGACACGTGAGGGC | 0.26 |
| TGGGTCACGTGTGAAC | 0.18 |
| AATTTCACGTGTTTCT | 0.26 |
| AGCGGCACGTGATGGC | 0.01 |
| TGGCTCACGTGAAATT | 0.4 |
| TTAAACACGTGAGGGA | 0.14 |
| GTTCGCACGTGGGTGT | -0.1 |
| TCATACACGTGATGGT | 0.07 |
| TCGAGCACGTGGTGTA | -0.18 |
| TAAGTCACGTGGTAAA | 0.14 |
| TCTTACACGTGTAATT | 0.22 |
| TTCGGCACGTGTGTGA | 0.01 |
| TTGTTCACGTGGAACT | 0.37 |
| AGAAGCACGTGTGATG | -0.05 |
| TATTACACGTGATCGG | 0.21 |
| GCTGCCACGTGGGGTG | -0.24 |
